Source: the supplement of paper PMC3334620
In all, about 33,000 sequences were measured (“E-score (-0.5 to 0.5)”: median about -0.041, highest 2% from about 0.37 on). Some of the results follow.

target: T1, Ecm22 (UniProt Q05958); assay: PBM E-score (8-mer binding enrichment) (E-score (-0.5 to 0.5)); higher = stronger / more preferred TF binding; most listed sequences are background and not binding sites; conditions: protein concentration: 200 nM; construct: GST-full length
T1 sequence: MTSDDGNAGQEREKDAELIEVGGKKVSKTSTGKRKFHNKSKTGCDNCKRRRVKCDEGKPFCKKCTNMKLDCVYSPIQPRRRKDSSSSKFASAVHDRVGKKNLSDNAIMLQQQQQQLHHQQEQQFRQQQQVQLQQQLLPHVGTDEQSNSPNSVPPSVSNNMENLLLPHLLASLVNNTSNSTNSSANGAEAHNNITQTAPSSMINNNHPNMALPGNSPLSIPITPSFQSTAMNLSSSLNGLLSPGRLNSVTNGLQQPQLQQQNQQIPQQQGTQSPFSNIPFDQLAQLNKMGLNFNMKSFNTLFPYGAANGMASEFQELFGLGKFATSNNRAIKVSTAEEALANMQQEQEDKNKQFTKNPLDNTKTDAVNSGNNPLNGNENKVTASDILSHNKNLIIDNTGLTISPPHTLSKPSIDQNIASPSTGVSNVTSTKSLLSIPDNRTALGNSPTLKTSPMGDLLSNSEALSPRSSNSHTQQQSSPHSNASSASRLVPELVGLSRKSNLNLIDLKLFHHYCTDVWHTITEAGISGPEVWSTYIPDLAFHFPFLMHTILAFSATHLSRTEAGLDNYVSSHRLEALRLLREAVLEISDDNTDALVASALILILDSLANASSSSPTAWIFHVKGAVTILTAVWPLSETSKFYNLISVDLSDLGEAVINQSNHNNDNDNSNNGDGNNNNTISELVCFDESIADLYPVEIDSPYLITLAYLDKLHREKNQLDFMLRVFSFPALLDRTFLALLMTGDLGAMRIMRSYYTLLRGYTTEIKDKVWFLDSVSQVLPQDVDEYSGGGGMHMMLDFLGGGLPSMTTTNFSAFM
Outline: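 GST-tagged yeast TFs (full-length or DNA-binding domain) were made by PURExpress in vitro transcription/translation and applied at about 100-200 nM to universal all-10-mer Agilent arrays. The arrays were made double-stranded by primer extension, on fresh or once-stripped slides. Bound protein was detected with fluorescent anti-GST, and scans were normalised with masliner. Each ungapped eight-base word, pooled with its reverse complement, received an E-score (modified Wilcoxon-Mann-Whitney statistic) from the Universal PBM Analysis Suite.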

Sequence | PBM E-score
AGCCTTCC | -0.286
ATCGGTTC | 0.0329
CAGATGAG | -0.24
CCGATCAC | 0.151
CTAGGGCC | -0.216
TAAACCGA | 0.232
GTTCGTCA | 0.0919
AGCCCTGC | -0.175
AGGGCCAT | -0.166
CGTGGGGA | 0.0544
ACCGCTTC | -0.157
CCAGGTGA | -0.0943
AGGGGGAC | -0.231
ACCTAACC | 0.0466
CCAATCTC | -0.085
ATGGTATG | -0.22
GTATCTTA | 0.196
CCAAATAA | -0.101
AAATCAAG | 0.136
ACATGACA | -0.0361
CTTGATGC | -0.13
AGATGGAG | -0.136
AGGTGCCA | -0.166
CTTTCTCA | 0.00463
GAAAAAAC | 0.198

Sequence | PBM E-score
ATAATGAT | 0.00868
GCGGTAGC | -0.0139
ATACCACA | 0.0238
ATACGGTA | 0.383
CACCTGGC | -0.216
GAGTAGGC | -0.185
TCGGCAGA | -0.0541
ACCCAACC | -0.0317
AAGAACTT | -0.0668
GAGACGAA | 0.26
CTTCGTTC | 0.47
CGAGACCC | 0.196
CGTGTTCC | 0.0444
GCGTCTCC | -0.0115
AAGTGAGA | -0.0638
CGCTCGTA | 0.467
TAACTGCA | -0.137
CTACAATA | -0.0169
GCTACAAC | -0.199
TAGCGGGA | 0.0464
TCGATGAA | -0.00675
ATTCTCTC | -0.0272
ATCATCAA | 0.0769
CGGTCTCA | -0.0713
GTCCCTCA | -0.154

Sequence | PBM E-score
AGTTAAAT | -0.125
GTCAAGCA | -0.324
AGTCGCTG | -0.108
TAAGTGGA | 0.107
ATTCAACC | -0.0471
ACAGTAAG | -0.0829
CCGGAAGC | -0.0224
ATCTCCAA | -0.224
ACGAGGCT | 0.382
CTAATGGA | -0.0389
CTATATTC | 0.132
CCCCGATC | -0.116
GGGCATGA | -0.207
AACGAGGT | 0.447
GTGTTTTA | 0.0978
CCTCCGGA | -0.0181
ATTAACCA | -0.282
AACACCAG | -0.259
CCGAGCAG | 0.184
TAGGGGGA | -0.252
TTTCAAAA | -0.148
AACTGGTA | -0.00065
TCAGCAGA | -0.0491
GTTCCGAA | 0.295
AGTACACT | 0.0203

Sequence | PBM E-score
ACCTCGGG | 0.206
GAGGGTAA | -0.0594
GTTTTATA | 0.287
ACGATTCT | 0.232
ACTCAATG | -0.0716
GACAGATC | -0.0475
ACAAAACC | 0.133
AACTCCCT | -0.177
CATTTATC | -0.0951
CTGCTCTC | -0.0471
GCATCTAC | -0.134
GACGACCC | -0.108
CGCCGTAC | 0.408
ACTCCGAG | -0.0421
GACTCAGC | -0.146
ACTCAGTA | 0.163
CAACGCCG | -0.036
CCACAAGC | -0.174
CCGTGTAA | 0.00985
AAGGCACC | -0.256
CTACTCAA | -0.154
CAGCTTTC | -0.16
GCGGGGCA | -0.136
AACAGAAG | -0.111
TAAGGCCA | -0.0816

Sequence | PBM E-score
GCGGTGAC | -0.154
CTACGCGC | -0.0164
GCGATTGA | -0.0601
ACAGTTCT | -0.0264
CGAGCAAG | 0.0574
TCTGCGAA | -0.0512
ACGTGTCA | -0.0367
GCCTATCA | -0.123
ATGTGATC | 0.16
CGTATAAA | 0.477
GCGGGGGA | -0.233
ATCACTTG | -0.0209
GGTCGCAA | 0.196
CCATCACC | -0.139
ATATAGGA | -0.00966
CAGCGTAC | 0.281
CTCCTTTC | -0.229
AAGCTTTA | 0.135
ACCGTGTC | -0.124
CCAAGGCA | -0.0888
GACCCAAC | -0.139
ACACTTCC | -0.209
AATGTCGC | 0.104
CTCCGGCA | 0.0745
GGGTCGAC | -0.168

Sequence | PBM E-score
ATTTCTCA | -0.172
TCAAATAA | -0.00224
AGGGTATA | 0.0742
ATGGGTTC | -0.124
ACTGTAGA | 0.0469
CGGGGTAC | 0.216
CAGGTCGC | -0.0308
AAGATCTT | -0.0828
CTCTGCAG | -0.0996
CGGCGTCA | -0.0357
CTTTTTAA | -0.158
CCCTTGAC | -0.229
CGATTTCA | -0.00627
CAGGACTA | -0.166
CAACTATG | -0.117
CGTTTCCA | 0.254
CCAGCCGA | -0.0629
ACTATCAA | 0.106
CGGAACTC | 0.154
ACAAGCGG | -0.0363
ACCGTAAT | 0.0766
GATGTCAC | -0.0882
AATAGACC | -0.228
ATCATGAC | 0.00241
ATGAGAAC | -0.0785

Sequence | PBM E-score
CATGCTTA | -0.111
TCTAATCA | -0.129
GGATTTTA | 0.132
AAGCGTCT | -0.144
CTACGTAG | -0.0163
CACCGTAC | 0.4
AAATCCTG | 0.015
CCTAAAGA | -0.112
GTAATCGA | 0.216
GAGATTCA | -0.0447
TGGAAACA | -0.168
ACGAACAC | 0.318
AGTGGCTA | -0.0843
AGGCCTTA | -0.137
CAATGACG | -0.147
TATTATCA | 0.0569
ATGTAAGC | 0.0707
CCCCCAAA | -0.297
TACCGCAA | 0.0649
CCTCTGAG | -0.133
ACACGTTG | -0.189
AGAAACGA | 0.424
